Assay results taken from PubChem BioAssay AID1508624 (National Center for Advancing Translational Sciences (NCATS), 2021).
About 120 (0.25%) of roughly 48,000 compounds were called active. Another 4% or so got no clear call; they are omitted. Calls come from the whole dose curve; as a rule, active = well fitted activation curve with a large enough effect; inconclusive = small, poorly fitted or top-dose-only effect, or another doubt; inactive = no such curve, though single readings can be large or run the other way. Only a part is listed here, and it is no random draw. The source gives no active or inactive call for entries shown without one.

Experiment: Primary qHTS for Identification of Small Molecule Activators of Huntingtin-Antisense Promoter Activity; note: nearly all actives have a fitted effect of over 55% in size
Conditions: HEK293 HTT-AS promoter firefly luciferase reporter, 24 h; activity change, positive = activation: at 57.5 µM (top of the series), percent change from vehicle, -100% = no light
Text: Assay Provider: Russell L. Margolis M.D.
Department Neurology, Johns Hopkins University School of Medicine, Baltimore, MD
Huntington's Disease (HD) is a neurodegenerative disorder caused by a CAG repeat expansion in exon 1 of huntingtin (HTT). While there are currently no disease-modifying treatments for HD, recent efforts have focused on development of nucleotide-based therapeutics to lower HTT expression. As an alternative to siRNA or oligonucleotide methods, we hypothesized that suppression of HTT expression might be accomplished by small molecules that either (1) directly decrease HTT expression by suppressing HTT promoter activity or (2) indirectly decrease HTT expression by increasing the promoter activity of HTT-AS, the gene antisense to HTT that appears to inhibit expression of HTT.
We developed and employed a high throughput screen for modifiers of HTT and HTT-AS promoter activity using luminescent reporter HEK293 cells; of the 52,041 compounds tested, we identified 898 replicable hits. We used a rigorous stepwise approach to assess compound toxicity and the capacity of the compounds to specifically lower huntingtin protein in 5 different cell lines, including HEK293 cells, HD lymphoblastoid cells, mouse primary neurons, HD iPSCs differentiated into cortical-like neurons, and HD hESCs. We found no compounds which were able to lower huntingtin without lowering cell viability in all assays, though the potential efficacy of a few compounds at non-toxic doses could not be excluded.
SEQUENCE No. (1, 2, 3, etc.); […] (e.g., Cells, Incubation, Reagent, etc.); VALUE and DESCRIPTION.
1; Reagent; 4 uL; 2,500 Hek293 luciferase reporter cells per wells
3; Compound; 23 nL; Control inhibitor / compound library
5; Reagent; 2.5 uL; Firefly Luc reagent; Dual-Glo Luciferase Reporter Assay System (Promega)
6; Time; 10 min; room temperature incubation
7; Detection; Luminescence; FLuc
NOTES (numbers refer to sequence above)
1; High-throughput screening, measuring luminescence from a Hek293 luciferase reporter, was performed in 1,536 well white-walled tissue-culture treated plates. 2,500 cells were plated in 4 µL of Opti-MEM per well using a Multidrop Combi Reagent Dispenser (ThermoFisher).
2; Assay plates were cultured for 24 hours.
3; Control inhibitor (PTC124; final concentration of 50 uM) and compound library (at final concentrations of 460 nM - 57.5 uM) were added to the assay plate using the Kalypsis Pintool Robotic System equipped with 1536 pinheads.
4; Cells were then incubated for 24 hours at 37 degrees C prior to luminescence measurements.
5; In all cases, luminescence was measured using the Dual-Glo Luciferase Reporter Assay System (Promega) following the manufacturer's instructions.
6; Room temperature incubation.
7; Luminescence signal was obtained using the PerkinElmer ViewLux plate reader. Results were normalized to vehicle control (0% activity) and zero RLU (-100% activity).

| Compound | activity change, positive = activation |
| --- | --- |
| COc1ccc(CCNC(=O)c2cnc3sc(N4CCC(C)CC4)nn3c2=O)cc1OC | 5.23% |
| Cc1cc(C)cc(NC(=O)C(=O)NC(C)c2ccccc2)c1 (stereo unspecified) | 0.878% |
| COc1ccc(-c2cc(C(F)(F)F)nc(SCCC(=O)Nc3ccc(O)cc3)n2)cc1 | inactive: -37.7% |
| COc1ccc(CCNC(=O)c2cnc3sc(N4CCOCC4)nn3c2=O)cc1OC | 4.16% |
| O=C(NCCc1ccccc1)c1cc(-c2cccc(Cl)c2)on1 | 12.5% |
| CC1CCN(c2ccc(-c3cccc(NS(=O)(=O)c4cccs4)c3)nn2)CC1 | 44.8% |
| CCCCOc1ccc(CNC(=O)c2cnc3sc(N4CCC(C)CC4)nn3c2=O)cc1 | -2.51% |
| COc1ccccc1CNC(=O)CCS(=O)(=O)c1ccc2c(c1)CC(C)N2C(=O)C1CC1 (stereo unspecified) | -14.9% |
| COc1ccccc1CNC(=O)CCc1c(C)nn(-c2ccc(N3CCCC3)nn2)c1C | -0.345% |
| Cc1ccc(CNC(=O)CCc2c(C)c3cc4c(C)coc4cc3oc2=O)cc1 | 5.39% |
| COc1ccc(C2(N3CCN(c4cc(C)ccc4C)CC3)C(=O)c3ccccc3C2=O)cc1 | -13.1% |
| Cc1ccc(C)c(N2CCN(C(=O)CCc3c(C)nn(-c4ccc(N5CCCC5)nn4)c3C)CC2)c1 | -30.6% |
| COc1ccccc1C(=O)Nc1ccccc1C(=O)OCc1cc(=O)n2c(C)csc2n1 | inactive: -17.3% |
| COC(=O)c1ccc(NC(=O)CC2C(=O)N(c3cccc(C)c3)C(=O)N2Cc2ccco2)cc1 (stereo unspecified) | -5.13% |
| COc1ccc(NC(=O)CCn2nc(-c3ccc(Cl)cc3)c3ccccc3c2=O)cc1 | -16.9% |
| Cc1ccccc1Nc1c(-c2ccc(N3CCOCC3)cc2)nc2cccc(C)n12 | inactive: 27.2% |
| O=C(CCS(=O)(=O)c1ccc(Br)s1)Nc1cc(C(F)(F)F)cc(C(F)(F)F)c1 | inactive: -48% |
| O=C(NCc1ccccc1)NC1COc2ccccc2C1 (stereo unspecified) | inactive: 14.4% |
| COc1cc(C2CC(=O)Nc3ccc4ccccc4c32)ccc1OC(=O)C(C)C (stereo unspecified) | -22.2% |
| N#Cc1nc(/C=C/c2ccc(F)cc2)oc1N1CCCCCC1 | inactive: -20.1% |
| O[C@@H](COc1cccc2ncccc12)CN1CCN(C2c3ccccc3[C@@H]3[C@H](c4ccccc42)C3(F)F)CC1 (stereo partly specified) | inactive: -34.1% |
| CCCc1cc(=O)[nH]c(Nc2cc(Cl)cc(Cl)c2)n1 | -56.2% |
| Cc1nn(Cc2ccc(F)cc2)c(C)c1NC(=O)c1noc2c1CCc1ccccc1-2 | -49% |
| O=C(c1cc(-c2cccc(Cl)c2)on1)N1CCCCC1 | -9.37% |

| Compound | activity change, positive = activation |
| --- | --- |
| Cc1ccc(Cl)cc1N1CCN(C(=O)C2CCN(S(=O)(=O)Cc3ccccc3)CC2)CC1 | -16% |
| COC(=O)c1ccccc1NC(=O)c1ccc(-c2nc(COc3ccccc3)c(C)o2)cc1 | -7.11% |
| Cc1ccc(Cn2c(CCCNC(=O)c3ccco3)nc3ccccc32)cc1 | -6.89% |
| CCc1nn(-c2ccccc2)c2nc(-c3ccc(O)cc3)c3cc(OC)c(OC)cc3c12 | 1.38% |
| O=C(NCc1ccc(F)cc1)C1CCCCN1S(=O)(=O)c1ccc(F)cc1 (stereo unspecified) | -12.2% |
| CCOC(=O)c1cc(C)n(CC2CCC(C(=O)Nc3ccc(C)cc3)CC2)c1C (stereo unspecified) | -16.6% |
| CCCN1CCN(CCCNC(=O)c2cnn(-c3ccc(C)cc3)c2-n2cccc2)CC1 | -0.463% |
| CCc1ccccc1NC(=O)CCCN1C(=O)COc2ccc(C)cc21 | inactive: -13.8% |
| CCOc1ccc(C(C)C)cc1S(=O)(=O)Nc1cccc(-c2ccc(N3CCOCC3)nn2)c1 | -6.88% |
| CCCCN(CC)c1ncnc2c1sc1nc(N3CCOCC3)c3c(c12)CCCC3 | 1.65% |
| CC(C)(C)c1ccc(OCCSc2nc(-c3cccs3)nc3cc(=O)[nH]n23)cc1 | -8.8% |
| Cc1c(CCC(=O)NCCc2ccccc2F)c(=O)oc2cc(O)ccc12 | -9.28% |
| O=S1(=O)N=C(Nc2cccc(C(F)(F)F)c2)c2ccccc21 | -19.4% |
| COc1cccc([C@H]2Nc3ccc(S(=O)(=O)Nc4cc(C)ccc4C)cc3[C@H]3C=CC[C@H]32)c1 | -2.75% |
| Cc1cc(C)c(OCC(=O)Nc2cccc(-c3nc4ncccc4o3)c2)c(Br)c1 | -15.2% |
| COc1ccc(C2=C(N3CCN(c4cc(Cl)ccc4C)CC3)c3ccccc3C2=O)cc1 | 22.8% |
| COc1ccc(NC(=O)c2c(C)oc3ccc(O)c(CN4CCCC(C)C4)c23)cc1 (stereo unspecified) | -6.33% |
| Cc1ccc(S(=O)(=O)Nc2cc3c(C(=O)OCc4ccccc4)c(C)oc3c3ccccc23)cc1 | -12% |
| O=C(Nc1ccc2oc(-c3cc(Br)ccc3Cl)nc2c1)c1ccc2ccccc2c1 | inactive: -36.2% |
| O=C(CSc1nc(-c2ccco2)nc2cc(=O)[nH]n12)Nc1ccccc1F | -7.42% |
| Cc1cnc(-c2cnc(NCCNc3ccc(C#N)cn3)nc2-c2ccc(Cl)cc2Cl)[nH]1 | inactive: -21.4% |
| COc1ccc(C)cc1S(=O)(=O)Nc1cccc(-c2ccc(N3CCCC3)nn2)c1 | 7.69% |
| O=S(=O)(Nc1ccc(-c2ccc(N3CCCCCC3)nn2)cc1)c1ccc(C(F)(F)F)cc1 | -3.34% |
| CCOC(=O)c1ccc2ncc(C(=O)OCC)c(NCCc3ccc(OC)c(OC)c3)c2c1 | inactive: -18.4% |

| Compound | activity change, positive = activation |
| --- | --- |
| Cc1csc2nc(-c3cccc(NC(=O)c4ccccc4F)c3)cn12 | inactive: 17.5% |
| CCCOc1ccc(CNC(=O)Cn2c(=O)oc3ccccc32)cc1 | -8.65% |
| CC(=O)c1ccc(NC(=O)CN2C(=O)c3cccnc3Sc3ccccc32)cc1 | inactive: 17% |
| CCOC(=O)c1ccc(N2CCN(c3cccc(Cl)c3)CC2)c(NC(=O)Nc2ccc(Cl)cc2)c1 | -10.7% |
| Cc1c(CC(=O)N2CCCCC2)c(=O)oc2c(C)c(O)ccc12 | -0.0899% |
| CCc1nc2sc3c(N4CCC(C)CC4)ncnc3c2c2c1CCCC2 | 2.92% |
| O=S(=O)(Nc1cccc(-c2ccc(N3CCCCCC3)nn2)c1)c1ccccc1F | 38.9% |
| Cc1ccc(OCCCC(=O)Nc2sc3c(c2C(N)=O)CCC(C)C3)cc1 (stereo unspecified) | -9.76% |
| COc1cccc(CNC(=O)CCc2c(C)nn(-c3ccc(N4CCCC4)nn3)c2C)c1 | -2.81% |
| Cc1cccc(OCC(=O)Nc2ccc3nc(SCc4ccccc4)sc3c2)c1 | inactive: 14% |
| COc1cc2c(cc1OC)[C@@H]1Cc3ccc(OC)c(OC)c3CN1CC2 | inactive: -9.9% |
| Cc1ccc2nc(Nc3cccc(C(F)(F)F)c3)c3nnnn3c2c1 | 5.33% |
| CCc1c(C)sc(NC(=O)c2cc(-c3ccc(OC)c(OC)c3)on2)c1C#N | 5.29% |
| O=C(CN1C(=O)COc2ccc(Cl)cc21)Nc1cccc(C(=O)O)c1 | 5.91% |
| COc1ccc(NC(=O)CN2C(=O)C(=O)c3ccccc32)c(OC)c1 | -4.21% |
| Cc1cccc(OCCSc2nc(-c3cccs3)nc3cc(=O)[nH]n23)c1 | -4.17% |
| CCOc1ccccc1CN1CCc2nc(N3CCN(c4ccccc4F)CC3)ncc2C1 | inactive: -51.4% |
| O=C1C(=O)N(C2CCN(C(=O)c3ccc(Cl)cc3)CC2)CCN1Cc1ccc(F)cc1 | 6.58% |
| Cc1ccccc1NC(=O)c1c(C)oc2ccc(O)c(CN3CCCC3)c12 | -2.15% |
| COc1cccc(-c2cc(C(=O)Nc3cc(C)nn3-c3ccccc3)no2)c1 | -4.42% |
| O=c1c2sc3ccccc3c2n(Cc2cccc(C(F)(F)F)c2)c(=O)n1Cc1ccccc1 | inactive: -30.4% |
| CCc1ccc(S(=O)(=O)Nc2cccc(-c3ccc(N4CCC(C)CC4)nn3)c2)s1 | 40.3% |
| CCc1ccc(CNC(=O)c2cnc3sc(N4CCCCC4)nn3c2=O)cc1 | -11.1% |
| CCOC(=O)c1ccc(N2CCN(c3ccccc3OC)CC2)c(NC(=O)Nc2ccc(CC)cc2)c1 | 1.58% |

| Compound | activity change, positive = activation |
| --- | --- |
| COc1ccc(N2CCN(CCCNC(=O)c3cnn(-c4ccc(C)cc4)c3-n3cccc3)CC2)cc1 | -13.5% |
| O=C(Nc1ccccc1C(F)(F)F)c1noc2c1CCCC2 | 83.3% |
| CCOC(=O)c1cc(C)n(CC2CCC(C(=O)Nc3ccc(OC)c(OC)c3)CC2)c1C (stereo unspecified) | -13.8% |
| Cc1cc(C)cc(NS(=O)(=O)c2c(C)nc3scc(C)n3c2=O)c1 | -8.41% |
| CCCOc1ccc(NC(=O)CC2C(=O)N(c3ccc(OC)cc3)C(=O)N2CCc2ccncc2)cc1 (stereo unspecified) | -2.59% |
| Cc1nn(-c2ccc(N3CCCCC3)nn2)c(C)c1CCC(=O)NCc1ccccc1 | 25% |
| Cc1ccc2c(=O)cc(C(=O)Nc3ccc(S(=O)(=O)N4CCCCCC4)cc3)oc2c1 | inactive: -9.13% |
| CCc1cc(=O)oc2c(C)c3c(cc12)CN(CCc1ccccc1OC)CO3 | -6.26% |
| O=C(Nc1cccc(Cl)c1)c1cc(-c2ccc3c(c2)OCO3)on1 | 101% |
| Cc1ccc(NC(=O)CSc2nc(-c3ccco3)nc3cc(=O)[nH]n23)cc1 | -14.9% |
| Cc1ccccc1CCNC(=O)c1ccc2c(c1)nc1n2CCCCC1 | inactive: -55.1% |
| CCOC(=O)c1cccc(NC(=O)c2cnc3sc(N4CCOCC4)nn3c2=O)c1 | -6.63% |
| Cc1cc(OCCCc2c(C(=O)O)n(Cc3cccnc3)c3c(-c4c(COc5ccc(N6CCN([S+](C)(=O)[O-])CC6)cc5)nn(C)c4C)cccc23)cc(C)c1Cl | inactive: -29.1% |
| CCOc1ccc(NC(=O)N2CCN3CCCCC3C2)cc1 (stereo unspecified) | 5.47% |
| COc1ccc(C2C(=O)N(C3CCC(C)CC3)CC(=O)N2C2CCCC2)cc1OC (stereo unspecified) | -8.2% |
| COc1ccc(C(CC(=O)Nc2cc(OC)c(OC)c(OC)c2)N2Cc3ccccc3C2=O)cc1 (stereo unspecified) | -27.6% |
| O=C(Nc1cnn(Cc2ccc(Cl)cc2Cl)c1)c1noc2c1CCc1ccccc1-2 | -13.6% |
| O=C(NCCc1ccccc1)c1cnc2sc(N3CCCCC3)nn2c1=O | -3.8% |
| COc1ccc(CCNS(=O)(=O)c2ccc(N3CCCCS3(=O)=O)cc2)cc1 | inactive: -28.6% |
| COc1ccc(C2=C(N3CCN(c4cccc(C)c4C)CC3)c3ccccc3C2=O)cc1 | 6.91% |
| CCc1ccc(NC(=O)CN2C(=O)c3cccc4cccc2c34)cc1 | 4.34% |
| COc1ccc(Br)cc1CNC(=O)c1cnc2sc(N3CCC(C)CC3)nn2c1=O | 3.46% |
| COc1cc(Cl)c(NC(=O)c2cc3ccccn3n2)c(OC)c1 | 63.8% |
| CCOc1ccc(-c2cn3c(n2)sc2cc(C(=O)NCCCN4CCCCC4)ccc23)cc1 | inactive: -18% |
